# Assay results published in the RNAGym collection of RNA variant scans (doi:10.1093/nar/gkz1192).
# Read counts are not given, so values of variants with three or more changes are uncertain.
# B1: CPEB3 Ribozyme (parent)
# chain: UAACAGGGGGCCACAGCAGAAGCGUUCACGUCGCAGCCCCUGUCAGAUUCUGGUGAAUCUGCGAAUUCUGCUGUAUAUCUC
# Variants of: B1
# Assay: self-cleavage, relative activity (ratio to wild type); higher = more cleavage; in vitro, sequencing
# Outline: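 Libraries of CPEB3 self-cleaving ribozyme mutants came from rounds of error-prone PCR and carried barcodes, which DNA sequencing matched to variants. In vitro transcription used T7 RNA polymerase at 37°C for 5 hours, with a further 15 min in DNase I before EDTA stopped the reaction; the ribozymes cleaved during both steps. The RNA was reverse transcribed with template switching and sequenced on Illumina. Relative activity is the cleaved/total read fraction of a variant divided by that of the unmutated ribozyme, averaged over three batches with at least 5 reads.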
row,Variant,self-cleavage
1,U25A U49A U69G,0.09
2,G24C U31A A35U U51C,0.08
3,G24A C29U A57G U60C U76C U78C,0.13
4,G24A U25C C39A U43C U54A A64U U80A,0.08
5,U25A U26C A28G U48G,0.26
6,C23U U48A U49A U54C U67A,0.08
7,U25A C32U G46A A64C A65U,0.09
8,U25A C40U U54C A56C U67C,0.1
9,C23U C34U A64G G70A,0.05
10,C23U A65G U78C,0.4
11,G24A G63A U76C,0.34
12,C23U U43C U69C U72C U74C,0.08
13,U25A C62U A65U U76C,0.11
14,G24U A35G U41A A45G G53A,0.14
15,G24A C34A U43A U60A U69A U78C,0.08
16,G24U U58C A77G,0.12
17,U25A A45G A47U A56G U69C,0.06
18,G24A U25C G55A A56G,0.04
19,U25A C32U U78G,0.06
20,C23U U26C U72G,0.07
21,G24A U26C U41A A64G,0.17
22,G24A C27A A45U A64G,0.05
23,G24A A35C A47G U66C,0.27
24,C23U C29A U43C A64G U66C U69A G73A,0

row,Variant,self-cleavage
1,C23U U51C G55A U72A A75U,0.06
2,U25A U43C U49C A65G U80A,0.12
3,G24U U25A U43C,0.18
4,U25A G63A A64G A65G U78G,0.06
5,C23U A45G A56G A64G,0.17
6,U25A A64G U69C U80C,0.12
7,U25A A35C U48C U66A,0.16
8,U25A U51C A65G U74C U76A,0.16
9,U25A U43C U51C U78C,0.2
10,U25A A35G U69C,0.07
11,G24A U31A A45G G61A A65G,0.08
12,G24U C50G A64G,0.15
13,G24A U43C U48C,0.34
14,G24A U31A U72A U76C,0.07
15,G24A U25C A28U A35U A65G,0.14
16,U25A U51C U67A,0.21
17,U25A A35G A45U U48C A64U U76A,0.06
18,U25A G42C U72C,0.1
19,U25A A47G U74C,0.27
20,G24C G36U U43C,0.18
21,G24A A64G A77U,0.19
22,U25A U26C U80C,0.13
23,C23U U43G A47G G61A U67C,0.09
24,U25A U26G C34A A45G U66C,0.12

row,Variant,self-cleavage
1,U25A U26A A56G A65G,0.08
2,G24A U51A U72A,0.15
3,G24A U31C U43C U60C C68A U74C,0.08
4,C23U U58C U60A C62A U76A,0.15
5,U25A A64G U72C,0.2
6,U25A A45U U72G A77G,0.08
7,C23U U26A C38U,0.18
8,G24A U31A A65G U72C U80G,0.21
9,U25A A47C U58G,0.2
10,C23U A35C U43A A45U A57G U58A U60C,0.06
11,C23U A65G U72A,0.14
12,G24A A28G A45G U60C,0.09
13,C23U U25C U49A,0.23
14,U25A U48A A57U U69A,0.1
15,G24A A45U A75U,0.21
16,U25A A56U A64G,0.17
17,G24C U49C A77C,0.08
18,G24A A45U U58C G73A U80C,0.11
19,G24A U66C A75U,0.62
20,G24A U25C U31A A45G,0.16
21,G24A U43C U48C U66C U74A,0.11
22,C23U U25C U31C C37U U43C,0.09
23,C23U C32U U41C U60C U72C,0.11
24,G24C U26C G36A U48C G53C,0.18

row,Variant,self-cleavage
1,G24U A45G A57G U69C,0.06
2,U25A U26C A64G,0.21
3,U25A A45G U58A U69C G73A U80C,0.14
4,C23U U41A A56U A65G,0.09
5,U25A U31A G42A U43C U78A,0.07
6,C23U A64U U67C U80A,0.08
7,U25A U26C U54C U58C,0.09
8,U25A C44U A64U C71U,0.09
9,C23U A47G A57G U72A U80A,0.18
10,U25A U51A G52A A57U,0.14
11,U25A U41G U78G,0.11
12,G24A A28U A35U G46A U48C A57G U76A,0.04
13,U25A U41A U48C,0.37
14,U25A U41A A64G,0.11
15,U25A U41C A45U U48C U54C,0.13
16,G24A U69A U76C,0.07
17,C23U G52U U54C,0.53
18,U25A U41G A45G,0.24
19,G24A A45G U58G U69C,0.16
20,G24C U26A A56U G61A,0.07
21,G24U A45G G53A U60C,0.29
22,C23U G30A U49C,0.14
23,C23U U25C U78C,0.12
24,G24A C62U U67A U76C,0.11

row,Variant,self-cleavage
1,G24A G55A C79U,0.3
2,U25A U26A U31G U66G A75U,0.17
3,C23U U49C A57G U67C,0.2
4,U25A U26C A56U,0.41
5,G24A U48G U51A A56G,0.07
6,G24C G36U G53A U58G,0.11
7,U25A G36A U41C,0.13
8,G24A C38A U66C U72C,0.1
9,G24C U58G A64U,0.55
10,G24A A28G U51C,0.13
11,U25A A35G A77U U78A,0.14
12,G24A U31G A77G,0.48
13,G24U G30A U49C A56G U58A A65U,0.06
14,G24A C32U A47G G63A U74C,0.48
15,G24U A65U U80C,0.13
16,G24C A45C U72C,0.21
17,C23U U26C A45G,0.04
18,U25A A28U U41A,0.4
19,G24A A47G U49C G53C U54C U66C,0.18
20,U25A U26C A47G A57U G63U A64U,0.08
21,U25A A28G A45G G46A,0.14
22,U25A U41C U72C,0.19
23,U25A C34G U43C C62G A65G U72A,0.03
24,U25A U41G U51C U72C,0.12

row,Variant,self-cleavage
1,C23U C29U U51C,0.33
2,U25A A35G G61A,0.28
3,C23U U26C A47G U69A U78C,0.04
4,C23U A35C U58C,0.09
5,C23U A35G U41A G73A,0.24
6,U25A U31A G52A U54C,0.15
7,U25A U26C A35G A57G U67A U74C U80G,0.02
8,G24A A28C U43C,0.18
9,G24A U31C U49C U58C,0.08
10,G24A U25C C34A U41A U69A,0.07
11,G24U U60C U72C U80C,0.08
12,G24U A45G G53A U72A,0.05
13,U25A U43G A45G,0.24
14,U25A A47G A57U,0.15
15,C23U U54C A75G,0.19
16,G24U A56U U69C,0.22
17,U25A A64G A75G,0.36
18,U25A U41A G61C U74C,0.29
19,U25A U31A A57G,0.16
20,U25A U51A U54A A57G A65G U72A,0.07
21,U25A C50A U51A,0.12
22,C23U C34G U48C G55A,0.09
23,G24A A28G U41G A56G,0.07
24,G24A U48C U67C U78A,0.34

row,Variant,self-cleavage
1,C23U A35G U58C U66C U78C,0.13
2,G24C A56U U66C,0.16
3,U25A U43C U51A U54C A65G U76C,0.16
4,C23U G33U U60C A64G,0.05
5,U25A C39U U72C,0.24
6,U25A G55C A64G,0.14
7,C23U G52U A64G,0.35
8,U25A G63A U67A U69C,0.06
9,U25A U41C U60A A65G C81U,0
10,G24A A28G U58C A77G,0.08
11,U25A A28U A45G U76C,0.04
12,C23U G36A A65U,0.09
13,G24A C59U U67C U74A,0.08
14,C23U A45U G61A,0.18
15,G24U U54C U80A,0.3
16,G24C C29U U69A U72A,0.15
17,G24A A77U U80C,0.33
18,U25A U43C A56U U58C U66A G70A,0.16
19,C23U U26A C32U U51A,0.09
20,G24C A28G U49C A56U,0.09
21,G24A A56G U60C U80A,0.09
22,G24A U49C U58C,0.09
23,G24A C29U U49G U60C U67C,0.05
